According to PubChem BioAssay AID686978 (National Center for Advancing Translational Sciences (NCATS), 2013):
Screen size: about 420,000 compounds; about 64,000 (15%) were called active. The shares of active, inactive and inconclusive entries below differ from those in the screen. Calls come from the whole dose curve; as a rule, active = well fitted inhibition curve with a large enough effect; inconclusive = small, poorly fitted or top-dose-only effect; inactive = flat fitted curve, though single readings scatter. No potency is given beside an inconclusive call; the fits are too rough.

Experiment: qHTS for Inhibitors of human tyrosyl-DNA phosphodiesterase 1 (TDP1): qHTS in cells in absence of CPT; note: nearly all actives have a fitted effect of over 55% in size
Conditions: DT40 Tdp1-/- hTDP1 cells, no CPT, ATP luminescence, 48 h; activity change, negative = growth inhibition: at 46.2 µM (top of the series) unless noted
How it was run: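 Cells were dispensed at 400 per well, compounds added by pin tool, plates incubated ≥48 hr at 37 °C, then CellTiter-Glo added for 30 min at room temperature before luminescence reading. Line: DT40 Tdp1-/- complemented with hTDP1; camptothecin omitted.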
% is set by controls: 0 for no effect and ±100 for the full control effect; potency is the fitted concentration of half-maximal effect; tags give direction and shape of the fitted curve.

Compound	Potency	activity change, negative = growth inhibition
O=C(CSc1nc(N2CCCCC2)nc(N2CCCCC2)n1)c1ccccc1	inconclusive [inhibitor, single point]	
COc1ccc(CCNC(=O)C2CCN(S(=O)(=O)c3cccc4cccnc34)CC2)cc1OC	inconclusive [inhibitor, single point]	
Cc1ccc(-n2cc(C(C)(C)C)[nH]c2=S)cc1	inconclusive [inhibitor, partial curve]	
O=C(NCc1ccc2c(c1)OCO2)c1cc(-c2ccccc2)c(N2CCOCC2)s1	active: 20.6 µM	
O=C(N/N=C/c1c[nH]c2ccccc12)C1CC1(c1ccccc1)c1ccccc1 (centres undefined)	inconclusive [inhibitor, single point]	
COc1ccccc1CNC(=O)C1CCN(S(=O)(=O)c2ccc3c(c2)CCCN3C(C)=O)CC1	inconclusive [inhibitor, single point]	
CCC(C(=O)NC1CCC(C)CC1)n1nc(C)c2sc3ccccc3c2c1=O (centres undefined)	active: 14.6 µM	
C=CCON1C(=O)C(=O)N(OCC=C)[C@H]2CCCC[C@H]21	inactive	
COc1cccc(C(=O)N(CN2CCCC2=O)c2cccc(Cl)c2)c1OC	inconclusive [inhibitor, partial curve]	
CC(C)(Oc1ccc(Cl)cc1)C(=O)NCCN1C(=O)S/C(=C/c2cccnc2)C1=O	inconclusive [inhibitor, single point]	
CCc1ccc(CNC(=O)c2cc3c(=O)n(Cc4cccs4)ccc3nc2C)cc1	active: 23.1 µM	
COc1ccc(-c2csc3ncnc(N4CCN(S(=O)(=O)c5ccc(C(C)=O)cc5)CC4)c23)cc1	inconclusive [inhibitor, single point]	
NC(Cc1ccc(Cl)cc1)c1csc(Nc2nccc(C(F)(F)F)n2)n1 (centres undefined)	inconclusive [inhibitor, single point]	
CC(=O)Nc1cc(NC(C)=O)c(N=Nc2ccccc2)cc1C	inconclusive [inhibitor, full curve, poor fit]	
O=C(c1ccccc1)N(C(=O)c1ccccc1)N1CCCC1	inactive	
Cc1ccc(N2C(=O)N(CC(=O)NC(c3ccccc3)c3ccccc3)C(=O)C2C)cc1 (centres undefined)	inconclusive [inhibitor, partial curve, poor fit]	
CC(CCc1ccccc1)NC(=O)C1CCN(S(=O)(=O)N2CCCCC2)CC1 (centres undefined)	inconclusive [inhibitor, partial curve]	
O=[N+]([O-])c1ccc(NC(=S)N2CCc3ccccc32)cc1	inactive	
O=C(CSc1nnc(COc2ccc(Cl)cc2)o1)N(c1ccccc1)C1CCS(=O)(=O)C1 (centres undefined)	active: 13 µM	
N#Cc1c(Nc2ccccc2C(F)(F)F)s[nH]c1=O	active: 20.6 µM	
CCOc1ccccc1NC(=O)Cn1nnc(C(=O)NCc2ccc(F)cc2)c1N	inconclusive [inhibitor, partial curve]	
Cc1ccc(S(=O)(=O)N(C)Cc2nc(-c3ccccc3)oc2C)cc1	inconclusive [inhibitor, single point]	
COc1cccc(/C=N/n2c(N)nc3ccccc32)c1OC	inactive	

Compound	Potency	activity change, negative = growth inhibition
OC[C@H]1O[C@H](OC[C@H]2O[C@H](OC[C@H]3O[C@H](O[C@]4(CO)O[C@H](CO)[C@@H](O)[C@@H]4O)[C@H](O)[C@@H](O)[C@@H]3O)[C@H](O)[C@@H](O)[C@H]2O)[C@H](O)[C@@H](O)[C@H]1O	inactive	
NC(=O)c1ccsc1NC(=O)c1nc(-c2ccccc2)n(-c2ccccc2)n1	inconclusive [inhibitor, single point]	
O=C(Cn1c2ccc(F)cc2c2nc3n(c(=O)c21)CCS3)N1CCCC1		inconclusive: -30.1% [inhibitor]
O=C(N/N=C/c1cc2ccccc2nc1Cl)[C@H]1C[C@@H]1c1ccccc1	active: 16.4 µM	
COCCNC(=O)c1ccc2c(c1)ncn2-c1cccc(C)c1	inconclusive [inhibitor, single point]	
CC(C)c1ccccc1NC(=O)COc1ccc(C(=O)NCCc2ccccc2)cc1	inconclusive [inhibitor, single point]	
O=C(O)CCCN1C(=O)/C(=C\c2ccc(-c3nc4ccccc4s3)o2)SC1=S	inconclusive [inhibitor, single point]	
O=C(Nc1ccc(Br)cc1)Nc1ccccc1F	active: 14.6 µM	
O=C(CSc1nc2ccccc2c(=O)n1-c1ccccc1)NCc1ccco1	inconclusive [inhibitor, single point]	
Cc1cc(=O)oc2c3c(cc(OCC(=O)N4CCC[C@H]4C(=O)O)c12)OC(C)(C)CC3	inactive	
OC(c1cc(F)cc(Cl)c1)c1ncc(-c2cccc(C(F)(F)F)c2)[nH]1 (centres undefined)	active: 13 µM	
Cc1nc2c(OCc3ccccc3)cccn2c1CC#N	inactive	
COc1ccc(CN(Cc2cccn2C)C(=O)c2cc3cc(OC)ccc3[nH]2)cc1	inconclusive [inhibitor, single point]	
COc1cc2c(cc1OC)C(C)N(C(=O)c1cc3c(C)cc(C)cc3[nH]1)CC2 (centres undefined)	active: 16.4 µM	
COc1ccc(OC)c(NC(=O)c2cc(C3CC3)nc3c2c(C)nn3-c2ccc(C)cc2)c1	inconclusive [inhibitor, single point]	
COc1ccc(-c2c(C)nn3c(C(F)(F)F)cc(-c4ccccc4)nc23)cc1	inconclusive [inhibitor, single point]	
CC(C)c1ccc(NC(=O)CN2C(=O)NC3(CCCC3)C2=O)cc1	inconclusive [inhibitor, partial curve, poor fit]	
COc1ccc(N(CC(=O)Nc2cc(C)ccc2C)S(=O)(=O)c2c(C)noc2C)cc1	inactive	
Cc1cc(C)cc(NS(=O)(=O)Cc2ccccc2)c1	inactive	
COc1c(OC)c(O)c2c(=O)cc(-c3c(O)cccc3O)oc2c1OC	inconclusive [inhibitor, single point]	
COc1ccccc1NC(=O)/C(C#N)=C/c1ccc(OCCN2CCOCC2)c(OC)c1	inconclusive [inhibitor, single point]	
COc1ccc(C(=O)NCc2ccc3c(c2)CCN3C(=O)c2ccc(C)cc2)cc1	inconclusive [inhibitor, single point]	
CCNC(=S)NNC(=O)c1ccccc1Cl	inactive	

Compound	Potency	activity change, negative = growth inhibition
CCOc1cc(C)c(Cl)cc1S(=O)(=O)N1CCCC1	inconclusive [inhibitor, single point]	
COC(=O)c1c(NC(=O)CN(C)CC(=O)Nc2ccc(C)cc2)sc2c1CCC(C)C2 (centres undefined)	inconclusive [inhibitor, single point]	
O=C(c1ccco1)N1CCN(Cc2nc3ccccc3c(=O)n2-c2ccc(F)cc2)CC1	inconclusive [inhibitor, partial curve]	
COc1ccc(C2CC=C(C(C)=O)CN2S(=O)(=O)c2ccccc2)cc1 (centres undefined)	active: 20.6 µM	
Cc1cc(C)cc(NC(=S)NC(=O)CCN2C(=O)c3ccccc3C2=O)c1	inconclusive [inhibitor, single point]	
CCCCOC(=O)c1ccc(-c2ccc(/C=N/NC(=S)NCC)o2)cc1	active: 7.31 µM	
Cc1ccc(S(=O)(=O)Nc2ccc(N3CCN(C)CC3)nc2)cc1	inactive	
COc1ccc(CNC(=O)C(c2ccncc2)N(C(=O)Cc2cccs2)c2ccccc2C)cc1 (centres undefined)	inactive	
CC1Cc2ccccc2N1S(=O)(=O)c1cccs1 (centres undefined)	active: 16.4 µM	
Cc1cccc(-n2c(=O)c3ccccc3n(Cc3ccccc3)c2=O)c1	inconclusive [inhibitor, single point]	
CCOC(=O)C1CCN(Cc2ccc(OC)c(C)c2OC)CC1		inconclusive: -19.5% [inhibitor]
CC1CCC(C(C)C)C(OCC(O)CN2CCCC(C)C2)C1 (centres undefined)	inconclusive [inhibitor, single point]	
COc1ccccc1CCC(=O)NCCCn1ccc2ccccc21	inconclusive [inhibitor, single point]	
CN(CC(=O)Nc1cccc(F)c1)CC(=O)N(C)CC(=O)Nc1ccccc1Br	inconclusive [inhibitor, single point]	
COc1ccc(NC(=O)NS(=O)(=O)c2ccc(C)cc2)cc1OC	inactive	
Cc1ccc(CNC(=O)C2CCN(Cc3nc(-c4cccc(Br)c4)oc3C)CC2)cc1	inconclusive [inhibitor, partial curve]	
CCN1CCN(C(c2cccs2)C(C)NS(=O)(=O)c2ccc(F)cc2)CC1 (centres undefined)	inactive	
COc1cccc(/C=C/c2nc3ccccc3nc2/C=C/c2cccc(OC)c2OC)c1OC	active: 2.82 µM	
Cc1cccc(C(=O)N2CC(=O)Nc3ccc(F)cc3C2c2ccc(F)cc2)c1 (centres undefined)	inconclusive [inhibitor, partial curve]	
CCN(CCN(C)C)C(=O)c1ccc2nc(C)c(N(C)C(=O)CCc3ccccc3)n2c1	inactive	
COc1ccc(/C=C2\N=C(C)OC2=O)cc1[N+](=O)[O-]	inconclusive [inhibitor, partial curve, poor fit]	
CCOc1ccc(N(CC)C(=O)c2nn(-c3ccc(OC)cc3)c(=O)c3c2c2ccccc2n3C)cc1	inconclusive [inhibitor, single point]	
Cc1cc(C)c2c(N)c(C(=O)c3ccccc3)sc2n1	inconclusive [inhibitor, single point]	
